{"source": "PubChem BioAssay AID1508624", "about": "(National Center for Advancing Translational Sciences (NCATS), 2021)", "note": "The whole screen tested about 48,000 compounds, of which about 120 (0.25%) were called active. Inconclusive results (about 4%) are left out. Calls follow the shape of the dose curve; as a rule, active = well fitted activation curve with a large enough effect; inconclusive = small, poorly fitted or top-dose-only effect, or another doubt; inactive = no such curve, though single readings can be large or run the other way. The entries are a selection whose mix differs from that of the whole data set. Entries without a call were filed so in the source. Potency is read from the fitted curve at half-maximal effect.", "data": [{"assay": "Primary qHTS for Identification of Small Molecule Activators of Huntingtin-Antisense Promoter Activity; also: nearly all actives have a fitted effect of over 55% in size", "conditions": "HEK293 HTT-AS promoter firefly luciferase reporter, 24 h; activity change, positive = activation: at 57.5 µM (top of the series), percent change from vehicle, -100% = no light", "from_the_text": "Assay Provider: Russell L. Margolis M.D.\nDepartment Neurology, Johns Hopkins University School of Medicine, Baltimore, MD\nHuntington's Disease (HD) is a neurodegenerative disorder caused by a CAG repeat expansion in exon 1 of huntingtin (HTT). While there are currently no disease-modifying treatments for HD, recent efforts have focused on development of nucleotide-based therapeutics to lower HTT expression. As an alternative to siRNA or oligonucleotide methods, we hypothesized that suppression of HTT expression might be accomplished by small molecules that either (1) directly decrease HTT expression by suppressing HTT promoter activity or (2) indirectly decrease HTT expression by increasing the promoter activity of HTT-AS, the gene antisense to HTT that appears to inhibit expression of HTT.\nWe developed and employed a high throughput screen for modifiers of HTT and HTT-AS promoter activity using luminescent reporter HEK293 cells; of the 52,041 compounds tested, we identified 898 replicable hits. We used a rigorous stepwise approach to assess compound toxicity and the capacity of the compounds to specifically lower huntingtin protein in 5 different cell lines, including HEK293 cells, HD lymphoblastoid cells, mouse primary neurons, HD iPSCs differentiated into cortical-like neurons, and HD hESCs. We found no compounds which were able to lower huntingtin without lowering cell viability in all assays, though the potential efficacy of a few compounds at non-toxic doses could not be excluded.\nSEQUENCE No. (1, 2, 3, etc.); […] (e.g., Cells, Incubation, Reagent, etc.); VALUE and DESCRIPTION.\n1; Reagent; 4 uL; 2,500 Hek293 luciferase reporter cells per wells\n3; Compound; 23 nL; Control inhibitor / compound library\n5; Reagent; 2.5 uL; Firefly Luc reagent; Dual-Glo Luciferase Reporter Assay System (Promega)\n6; Time; 10 min; room temperature incubation\n7; Detection; Luminescence; FLuc\nNOTES (numbers refer to sequence above)\n1; High-throughput screening, measuring luminescence from a Hek293 luciferase reporter, was performed in 1,536 well white-walled tissue-culture treated plates. 2,500 cells were plated in 4 µL of Opti-MEM per well using a Multidrop Combi Reagent Dispenser (ThermoFisher).\n2; Assay plates were cultured for 24 hours.\n3; Control inhibitor (PTC124; final concentration of 50 uM) and compound library (at final concentrations of 460 nM - 57.5 uM) were added to the assay plate using the Kalypsis Pintool Robotic System equipped with 1536 pinheads.\n4; Cells were then incubated for 24 hours at 37 degrees C prior to luminescence measurements.\n5; In all cases, luminescence was measured using the Dual-Glo Luciferase Reporter Assay System (Promega) following the manufacturer's instructions.\n6; Room temperature incubation.\n7; Luminescence signal was obtained using the PerkinElmer ViewLux plate reader. Results were normalized to vehicle control (0% activity) and zero RLU (-100% activity).", "values": [{"smiles": "CC(C)OCc1cc(CN2CCN(c3cccc(C(F)(F)F)c3)CC2)c(O)c2ncccc12", "activity change, positive = activation": "inactive: -32.8%"}, {"smiles": "CCOc1ccc(S(=O)(=O)Nc2cccc(-c3ccc(N4CCC(C)CC4)nn3)c2)cc1", "activity change, positive = activation": "35.7%"}, {"smiles": "CCOc1ccc2ncc3c(-c4cccc(OC)c4)nn(-c4ccccc4)c3c2c1", "activity change, positive = activation": "inactive: -28.3%"}, {"smiles": "CCOC(=O)c1nc(NCc2ccc(Cl)cc2)c2c(C)noc2n1", "activity change, positive = activation": "inactive: -18.7%"}, {"smiles": "Cc1c(C)c2cc3c(c(C)c2oc1=O)OCN(CCc1ccc(F)cc1)C3", "activity change, positive = activation": "-8.52%"}, {"smiles": "COC(=O)c1ccc(NC(=O)CC2C(=O)N(c3ccccc3)C(=O)N2Cc2ccc(F)cc2)cc1", "note": "(stereo unspecified)", "activity change, positive = activation": "-18.8%"}, {"smiles": "O=C(Nc1cccc(Cl)c1)C1CCN(S(=O)(=O)Cc2ccccc2)CC1", "activity change, positive = activation": "-4.36%"}, {"smiles": "COc1ccc(C2(N3CCN(c4cccc(C)c4C)CC3)C(=O)c3ccccc3C2=O)cc1", "activity change, positive = activation": "0.291%"}, {"smiles": "Cc1ccc(S(=O)(=O)N2CCCc3cc(NS(=O)(=O)c4ccc(C)c(C)c4)ccc32)cc1", "activity change, positive = activation": "inactive: -26.3%"}, {"smiles": "COc1ccc(C2=C(N3CCN(c4cc(C)ccc4C)CC3)c3ccccc3C2=O)cc1", "activity change, positive = activation": "3.8%"}, {"smiles": "COc1ccc(Nc2nnc(-c3ccc(C)c(S(=O)(=O)NCCO)c3)c3ccccc23)cc1C(N)=O", "activity change, positive = activation": "-1.02%"}, {"smiles": "Fc1ccc(C(NCCc2ccccc2)c2nnc(-c3ccccc3Cl)o2)cc1", "note": "(stereo unspecified)", "activity change, positive = activation": "-14.8%"}, {"smiles": "CC(C)c1cc(C(=O)NCc2ccccc2)no1", "activity change, positive = activation": "72.1%"}, {"smiles": "Cc1c(NC(=O)c2sc3ccccc3c2Cl)cccc1-c1nc2ccccc2o1", "activity change, positive = activation": "8.59%"}, {"smiles": "O=S(=O)(Nc1ccc(-c2ccc(N3CCCC3)nn2)cc1)c1ccc(Br)cc1", "activity change, positive = activation": "-2.15%"}, {"smiles": "COc1ccc(OCc2nnc(-c3ccccc3)o2)cc1", "activity change, positive = activation": "34.3%"}, {"smiles": "COc1ccc(-c2cc(C(=O)Nc3c(C)nn(Cc4ccc(F)cc4)c3C)no2)cc1OC", "activity change, positive = activation": "-13.4%"}, {"smiles": "CCOc1ccc(S(=O)(=O)Nc2ccc(-c3ccc(N4CCCC4)nn3)cc2)cc1", "activity change, positive = activation": "3.42%"}, {"smiles": "CCc1nn(CC(=O)NCc2cccc(OC)c2)c(=O)c2cc3cc(F)ccc3n12", "activity change, positive = activation": "0.0152%"}, {"smiles": "CCc1c(C)sc2c1CCN(C(=O)Nc1cc(C)ccc1OC)C2c1ccc(F)cc1", "note": "(stereo unspecified)", "activity change, positive = activation": "inactive: -21.6%"}, {"smiles": "Cc1cncn1CCc1nc2c3ccccc3nc(SCC(=O)Nc3ccc(F)cc3)n2n1", "activity change, positive = activation": "inactive: 7.13%"}, {"smiles": "COc1cccc(NC(CNS(=O)(=O)c2ccc(Cl)cc2)c2ccccc2)c1", "note": "(stereo unspecified)", "activity change, positive = activation": "inactive: -41.4%"}, {"smiles": "Cn1c(CNC(=O)CSc2nc(-c3cccc(Cl)c3)nc3cc(=O)[nH]n23)nc2ccccc21", "activity change, positive = activation": "1.2%"}, {"smiles": "O=C(CN1C=NS(=O)(=O)c2ccc(C(F)(F)F)cc21)Nc1cccc(C(F)(F)F)c1", "activity change, positive = activation": "inactive: -30.3%"}, {"smiles": "O=C(c1noc2c1CCCCC2)N1CCN(c2cccc(C(F)(F)F)c2)CC1", "activity change, positive = activation": "inactive: -39.4%"}, {"smiles": "CCCCC(=O)Oc1ccc2oc(-c3ccc(OC)cc3)cc(=O)c2c1", "Potency": "active: 2 µM"}, {"smiles": "Cc1ccc(F)cc1NC(=O)CCc1c(C)nn(-c2ccc(N3CCCC3)nn2)c1C", "activity change, positive = activation": "-3.14%"}, {"smiles": "CCCCN(CC)C(=O)c1cc2c(=O)n3cccc(C)c3nc2n1C", "activity change, positive = activation": "inactive: -7.15%"}, {"smiles": "CCOc1ccc(C2C(=O)N(C3CCCCCC3)CC(=O)N2CCc2ccc(OC)c(OC)c2)cc1OC", "note": "(stereo unspecified)", "activity change, positive = activation": "-11.1%"}, {"smiles": "Cc1c(CCC(=O)NCc2cccc(Cl)c2)c(=O)oc2c(C)c(O)ccc12", "activity change, positive = activation": "-13.8%"}, {"smiles": "Cc1nn(-c2ccc(N3CCCC3)nn2)c(C)c1CCC(=O)Nc1ccc(F)cc1F", "activity change, positive = activation": "-4.05%"}, {"smiles": "CC(=O)N1c2ccc(S(=O)(=O)NCC3CCC(C(=O)Nc4ccc(C)cc4)CC3)cc2CC1C", "note": "(stereo unspecified)", "activity change, positive = activation": "inactive: -39.4%"}, {"smiles": "CCOC(=O)c1ccc(N2CCN(c3cccc(OC)c3)CC2)c(NC(=O)Nc2ccc(OCC)cc2)c1", "activity change, positive = activation": "4.06%"}, {"smiles": "COc1ccccc1CNS(=O)(=O)c1c(C)nc2scc(C)n2c1=O", "activity change, positive = activation": "-8.97%"}, {"smiles": "CC[C@]1(O)C[C@@H]2CN(CCc3c([nH]c4ccccc34)[C@@](C(=O)OC)(c3cc4c(cc3OC)N(C=O)[C@@H]3C45CCN4CC=C[C@](CC)([C@H]45)[C@@H](OC(C)=O)[C@]3(O)C(=O)OC)C2)C1", "note": "(stereo partly specified)", "activity change, positive = activation": "inactive: -16%"}, {"smiles": "COC(=O)c1ccc(NC(=O)CCc2c(C)nn(-c3ccc(N4CCCC4)nn3)c2C)cc1", "activity change, positive = activation": "-9.22%"}, {"smiles": "CCn1cc(-c2ccnc3[nH]c(-c4cccc(CN(C)C)c4)cc23)c(-c2ccc(NC(=O)N(C)C)cc2)n1", "activity change, positive = activation": "inactive: -46.1%"}, {"smiles": "COc1ccccc1N1CCN(C(=O)CCc2c(C)nn(-c3ccc(N4CCCC4)nn3)c2C)CC1", "activity change, positive = activation": "-19.5%"}, {"smiles": "CCOc1ccn(-c2ccc(F)cc2)c(=O)c1C(=O)Nc1ccc(Oc2ccnc(N)c2Cl)c(F)c1", "activity change, positive = activation": "inactive: -16.3%"}, {"smiles": "CCn1c(SCc2ccccc2)nnc1-c1nonc1NC(C)=O", "activity change, positive = activation": "inactive: -19.4%"}, {"smiles": "Cc1ccccc1CCNC(=O)c1cc2ccccn2n1", "activity change, positive = activation": "87.3%"}, {"smiles": "OCc1ccc(-c2ccc(-c3ccc(CO)s3)o2)s1", "activity change, positive = activation": "inactive: -9.42%"}, {"smiles": "Cc1cccc(C(=O)Nc2cc3c(cc2N2CCCCC2)n(C)c(=O)n3C)c1", "activity change, positive = activation": "1.5%"}, {"smiles": "Cc1ccc(C)c(CNC(=O)C2CCCCN2S(=O)(=O)c2ccc(F)cc2)c1", "note": "(stereo unspecified)", "activity change, positive = activation": "-21.8%"}, {"smiles": "O=C(CC(c1cccs1)N1Cc2ccccc2C1=O)Nc1ccc(Cl)cc1", "note": "(stereo unspecified)", "activity change, positive = activation": "-14.8%"}, {"smiles": "CCOc1ccc2nc(Cl)c(C3CC(c4ccc(C)cc4)=NN3C(=O)CCCC(=O)O)cc2c1", "note": "(stereo unspecified)", "activity change, positive = activation": "-7.05%"}]}]}
